From the supplement of paper PMC4967469
Lines with a small IC50 respond at low doses; a fit beyond the top or the lowest dose is shown as a bound at that dose. AUC sums up the same curve from the lowest dose to the 256-fold higher top dose: 1 means no effect, lower means more sensitive. For some assays here: Where the top dose is marked as inferred, it was calculated from the reported fits.

Columns and labels:
Test in all cases: Viability of human cancer cell lines after 72 h of drug (GDSC screen)
[1] = compound: CCc1c2c(nc3ccc(O)cc13)-c1cc3c(c(=O)n1C2)COC(=O)[C@]3(O)CC [SN-38]; conditions: top dose 0.05 µM; top dose inferred
Protocol: (§1)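 Human cancer cell lines in 384-well plates, medium with 10% serum, drug for 72 h over a 256-fold dose range (nine 2-fold or five 4-fold steps up to the top dose). Adherent lines were fixed and stained with the nucleic acid dye Syto60, suspension lines read with resazurin; signal relative to control wells, capped at 0 and 100%. One two-parameter sigmoid per drug and line, fitted in a mixed model over all curves with the slope shared within a line.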

[2] = compound: O=C(CCCCCCC(=O)Nc1ccccc1)NO [Vorinostat]; conditions: top dose 10 µM
Protocol: as §1

[3] = compound: CN(Cc1cnc2nc(N)nc(N)c2n1)c1ccc(C(=O)N[C@@H](CCC(=O)O)C(=O)O)cc1 [Methotrexate]; conditions: top dose 0.2 µM
Protocol: as §1

[4] = compound: CC(C)(C)c1nc(-c2cccc(NS(=O)(=O)c3c(F)cccc3F)c2F)c(-c2ccnc(N)n2)s1 [Dabrafenib]; conditions: top dose 10 µM
Protocol: as §1

[5] = compound: CNC(=O)c1ccccc1Sc1ccc2c(/C=C/c3ccccn3)n[nH]c2c1 [Axitinib]; conditions: top dose 2 µM
Protocol: as §1

Cell Line | AUC [1] | IC50 [1] [nM] | AUC [2] | IC50 [2] [nM] | AUC [3] | IC50 [3] [nM] | AUC [4] | IC50 [4] [nM] | AUC [5] | IC50 [5] [nM]
MG-63 (osteosarcoma, adherent) | 0.645 | 8.4 | 0.849 | 9440 | 0.821 | 141 | – | – | – | –
AU565 (breast, adherent) | 0.651 | 8.63 | 0.721 | 2870 | 0.734 | 63.6 | – | – | – | –
HuP-T4 (pancreas, adherent) | 0.406 | 1.7 | 0.721 | 2770 | 0.982 | > 200 | – | – | – | –
EGI-1 (biliary tract, adherent) | 0.744 | 19.7 | – | – | 0.982 | > 200 | 0.916 | > 10000 | 0.941 | > 2000
DoTc2-4510 (cervix, adherent) | 0.667 | 8.89 | – | – | 0.985 | > 200 | 0.978 | > 10000 | 0.97 | > 2000
H9 (lymphoid neoplasm, suspension) | 0.443 | 2.24 | – | – | 0.419 | 7.85 | 0.951 | > 10000 | 0.977 | > 2000
SW1990 (pancreas, adherent) | 0.65 | 8.82 | – | – | 0.985 | > 200 | 0.979 | > 10000 | 0.965 | > 2000
BT-20 (breast, adherent) | 0.81 | 34.5 | 0.81 | 6850 | – | – | 0.981 | > 10000 | – | –
EJM (lymphoid neoplasm, semi-adherent) | 0.838 | 26.4 | – | – | 0.989 | > 200 | 0.991 | > 10000 | 0.992 | > 2000
NCI-H847 (small cell lung carcinoma, adherent) | 0.906 | 45.2 | – | – | 0.993 | > 200 | 0.992 | > 10000 | 0.932 | > 2000
ROS-50 (B-cell leukaemia, suspension) | 0.857 | > 50 | – | – | 0.979 | > 200 | 0.983 | > 10000 | 0.983 | > 2000
JIMT-1 (breast, adherent) | 0.876 | > 50 | – | – | 0.984 | > 200 | 0.847 | 8220 | 0.901 | > 2000
L-363 (myeloma, suspension) | 0.93 | > 50 | – | – | 0.532 | 15.1 | 0.989 | > 10000 | 0.966 | > 2000
SW948 (large intestine, adherent) | 0.579 | 5.7 | – | – | 0.982 | > 200 | 0.98 | > 10000 | 0.959 | > 2000
PANC-02-03 (pancreas, adherent) | 0.754 | 19.9 | – | – | 0.964 | > 200 | 0.853 | > 10000 | 0.978 | > 2000
23132-87 (stomach, adherent) | 0.61 | 6.35 | – | – | 0.879 | > 200 | 0.982 | > 10000 | 0.982 | > 2000
HSC-39 (stomach, suspension) | 0.944 | > 50 | – | – | 0.979 | > 200 | 0.974 | > 10000 | 0.549 | 167
SAS (head and neck, adherent) | 0.288 | 0.726 | – | – | 0.957 | > 200 | 0.955 | > 10000 | 0.961 | > 2000
U-266 (myeloma, semi-adherent) | 0.921 | > 50 | – | – | 0.959 | > 200 | 0.865 | > 10000 | 0.983 | > 2000
NCI-H929 (myeloma, suspension) | 0.699 | 10.3 | – | – | 0.743 | 54.5 | 0.853 | 6100 | 0.959 | > 2000
KMH-2 (thyroid, adherent) | 0.854 | 32.9 | – | – | 0.885 | 177 | 0.73 | 2590 | 0.932 | > 2000

Cell Line | AUC [1] | IC50 [1] [nM] | AUC [2] | IC50 [2] [nM] | AUC [3] | IC50 [3] [nM] | AUC [4] | IC50 [4] [nM] | AUC [5] | IC50 [5] [nM]
MC116 (B-cell lymphoma, suspension) | 0.959 | 45.8 | – | – | 0.99 | > 200 | 0.999 | > 10000 | 0.999 | > 2000
OS-RC-2 (kidney, adherent) | 0.74 | 21.1 | – | – | 0.922 | > 200 | 0.959 | > 10000 | 0.923 | > 2000
HCC1187 (breast, suspension) | 0.851 | 35.5 | 0.251 | 126 | – | – | 0.98 | > 10000 | – | –
DAN-G (pancreas, adherent) | 0.783 | 18.4 | 0.815 | 4650 | 0.913 | > 200 | – | – | – | –
RPMI-7951 (melanoma, adherent) | 0.664 | 8.79 | 0.787 | 4200 | 0.927 | > 200 | – | – | – | –
NCI-H1581 (large cell lung carcinoma, semi-adherent) | 0.766 | 17 | – | – | 0.988 | > 200 | 0.956 | > 10000 | 0.851 | 1350
T84 (large intestine, adherent) | 0.875 | > 50 | – | – | 0.988 | > 200 | 0.983 | > 10000 | 0.989 | > 2000
SK-ES-1 (Ewing sarcoma, semi-adherent) | 0.374 | 1.37 | – | – | 0.509 | 13.3 | 0.948 | > 10000 | 0.937 | > 2000
WSU-DLCL2 (B-cell lymphoma, suspension) | 0.625 | 6.48 | – | – | 0.548 | 16.5 | 0.984 | > 10000 | 0.991 | > 2000
CFPAC-1 (pancreas, adherent) | 0.52 | 3.56 | – | – | 0.896 | > 200 | 0.845 | 8830 | 0.958 | > 2000
SAT (head and neck, adherent) | 0.807 | 45.3 | – | – | 0.908 | > 200 | 0.8 | 8370 | 0.835 | > 2000
SU-DHL-4 (B-cell lymphoma, suspension) | 0.901 | 32.1 | – | – | 0.997 | > 200 | 0.997 | > 10000 | 0.997 | > 2000
NCI-N87 (stomach, adherent) | 0.782 | 31.6 | – | – | 0.97 | > 200 | 0.85 | > 10000 | 0.979 | > 2000
NCI-H1975 (lung adenocarcinoma, adherent) | 0.89 | > 50 | – | – | 0.977 | > 200 | 0.797 | 5530 | 0.971 | > 2000
KNS-62 (lung squamous cell carcinoma, adherent) | 0.608 | 7.05 | – | – | 0.962 | > 200 | 0.923 | > 10000 | 0.972 | > 2000
HGC-27 (stomach, adherent) | 0.479 | 2.77 | – | – | 0.971 | > 200 | 0.967 | > 10000 | 0.901 | 1900
NAMALWA (Burkitt lymphoma, suspension) | 0.474 | 2.68 | – | – | 0.705 | 42.2 | 0.977 | > 10000 | 0.98 | > 2000
KY821 (leukaemia, suspension) | 0.751 | 14.6 | – | – | 0.975 | > 200 | 0.991 | > 10000 | 0.927 | > 2000
SK-HEP-1 (liver, adherent) | 0.361 | 1.32 | 0.761 | 3340 | 0.943 | > 200 | – | – | – | –
NCI-H1993 (lung adenocarcinoma, adherent) | 0.88 | > 50 | – | – | 0.982 | > 200 | 0.849 | > 10000 | 0.976 | > 2000
KARPAS-299 (anaplastic large cell lymphoma, suspension) | 0.723 | 11.8 | – | – | 0.445 | 9.09 | 0.979 | > 10000 | 0.946 | > 2000

Cell Line | AUC [1] | IC50 [1] [nM] | AUC [2] | IC50 [2] [nM] | AUC [3] | IC50 [3] [nM] | AUC [4] | IC50 [4] [nM] | AUC [5] | IC50 [5] [nM]
Calu-6 (lung adenocarcinoma, adherent) | 0.709 | 13.3 | – | – | 0.909 | > 200 | 0.682 | 2190 | 0.984 | > 2000
A427 (non-small cell lung carcinoma, adherent) | 0.826 | 30.6 | 0.565 | 944 | – | – | 0.926 | > 10000 | – | –
CTV-1 (acute myeloid leukaemia, suspension) | 0.331 | 1.17 | – | – | 0.734 | 49.2 | 0.959 | > 10000 | 0.941 | > 2000
LP-1 (myeloma, suspension) | 0.978 | > 50 | – | – | 0.988 | > 200 | 0.989 | > 10000 | 0.993 | > 2000
LCLC-97TM1 (large cell lung carcinoma, adherent) | 0.561 | 4.65 | – | – | 0.894 | > 200 | 0.911 | > 10000 | 0.941 | > 2000
GRANTA-519 (B-cell lymphoma, suspension) | 0.533 | 3.81 | – | – | 0.928 | > 200 | 0.99 | > 10000 | 0.958 | > 2000
TE-1 (oesophagus, adherent) | 0.702 | 13.6 | – | – | 0.878 | > 200 | 0.899 | > 10000 | 0.941 | > 2000
NB-4 (acute myeloid leukaemia, suspension) | 0.376 | 1.52 | – | – | 0.484 | 11.4 | 0.826 | 4640 | 0.914 | > 2000
NB1 (neuroblastoma, semi-adherent) | 0.733 | 15.7 | – | – | 0.889 | > 200 | 0.982 | > 10000 | 0.951 | > 2000
NCI-H2081 (small cell lung carcinoma, suspension) | 0.917 | > 50 | – | – | 0.893 | > 200 | 0.988 | > 10000 | 0.912 | > 2000
MKN45 (stomach, adherent) | 0.758 | 21.7 | – | – | 0.894 | > 200 | 0.941 | > 10000 | 0.918 | > 2000
HAL-01 (lymphoblastic leukaemia, suspension) | 0.457 | 2.42 | – | – | 0.255 | 2.76 | 0.602 | 1150 | 0.965 | > 2000
Hep 3B2_1-7 (liver, adherent) | 0.897 | > 50 | – | – | 0.985 | > 200 | 0.925 | > 10000 | 0.808 | 1030
SUP-T1 (T-cell lymphoblastic leukaemia, suspension) | 0.401 | 1.72 | – | – | 0.968 | > 200 | 0.985 | > 10000 | 0.979 | > 2000
NCI-H69 (small cell lung carcinoma, suspension) | 0.883 | > 50 | – | – | 0.876 | > 200 | 0.975 | > 10000 | 0.931 | > 2000
Capan-2 (pancreas, adherent) | 0.954 | > 50 | – | – | 0.95 | > 200 | 0.961 | > 10000 | 0.985 | > 2000
SKN (uterus, adherent) | 0.697 | 12.6 | – | – | 0.981 | > 200 | 0.939 | > 10000 | 0.738 | 701
Farage (B-cell lymphoma, suspension) | 0.992 | > 50 | – | – | 0.901 | 177 | 0.983 | > 10000 | 0.993 | > 2000
22RV1 (prostate, adherent) | 0.644 | 8.66 | – | – | 0.915 | > 200 | 0.93 | > 10000 | 0.915 | > 2000
